Binding data for 6 molecules are collected here from PMC12517274.

Test [1] addresses RIPK1 death domain (Flag-tagged RIPK1-DD and HA-tagged RIPK1-DD) (mouse) (UniProt Q60855). The test can be described thus: co-IP; HEK293T cells cotransfected with Flag-tagged and HA-tagged expression plasmids for 24 h; some cells treated with DZNep (10 μM), siADK or adenosine (1 mM); immunoprecipitation and immunoblotting (0.5% Nonidet P-40 buffer in Fig. 4 I).
Test [2] concerns the target T1, receptor-interacting serine/threonine kinase 1 (RIPK1), endogenous in MEFs (mouse (endogenous in MEFs)) (UniProt Q60855).
T1 sequence: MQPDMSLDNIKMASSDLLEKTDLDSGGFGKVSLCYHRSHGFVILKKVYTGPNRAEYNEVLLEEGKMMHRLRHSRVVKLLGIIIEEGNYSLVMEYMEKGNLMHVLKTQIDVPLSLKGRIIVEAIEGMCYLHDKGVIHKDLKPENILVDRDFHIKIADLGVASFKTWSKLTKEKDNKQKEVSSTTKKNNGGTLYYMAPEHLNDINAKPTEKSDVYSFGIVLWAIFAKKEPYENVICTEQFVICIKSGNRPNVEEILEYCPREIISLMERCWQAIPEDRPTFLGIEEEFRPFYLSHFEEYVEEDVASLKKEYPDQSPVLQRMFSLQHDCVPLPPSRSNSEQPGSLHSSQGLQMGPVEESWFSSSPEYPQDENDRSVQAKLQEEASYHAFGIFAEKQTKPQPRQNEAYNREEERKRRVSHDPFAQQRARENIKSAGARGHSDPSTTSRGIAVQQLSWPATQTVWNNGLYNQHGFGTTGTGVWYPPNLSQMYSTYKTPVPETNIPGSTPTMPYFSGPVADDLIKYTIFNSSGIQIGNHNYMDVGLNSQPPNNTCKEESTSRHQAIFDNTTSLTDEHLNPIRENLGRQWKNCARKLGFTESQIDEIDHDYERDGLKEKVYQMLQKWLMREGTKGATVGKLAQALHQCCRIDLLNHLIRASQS
The test can be described thus: condition: only with Nec-1s (RIPK1 kinase inhibitor); co-IP; as a5 (TNFα/5z7-induced RDA in MEFs, RIPK1 immunoprecipitated), cells treated with the RIPK1 kinase inhibitor Nec-1s.

In test [3] the target is T2, WT RIPK1 reconstituted in RIPK1 KO MEFs (mouse) (UniProt Q60855).
T2 sequence: T1 sequence
The test is described as above.

Test [4] has as its target T1, receptor-interacting serine/threonine kinase 1 (RIPK1), endogenous in MEFs (mouse (endogenous in MEFs)). Description: co-IP; MEFs (reconstituted with WT or R606K RIPK1, or siNC/siAdk) stimulated by Flag-TNFα (10 ng/ml) after 5z7 (500 nM) for 30 min; RIPK1 immunoprecipitated; FADD and TRADD by immunoblotting.
The target of test [5] is T3, R606K mutant RIPK1 reconstituted in RIPK1 KO MEFs (mouse) (UniProt Q60855).
T3 sequence: T1 sequence with R606K
The description is as above.

For test [6], the target named is T2, WT RIPK1 reconstituted in RIPK1 KO MEFs (mouse). Described as above.
Test [7] addresses T4, full-length RIPK1 R606K expressed in HEK293T cells (Flag-tagged RIPK1-R606K and HA-tagged RIPK1-R606K) (mouse) (UniProt Q60855).
T4 sequence: T1 sequence with R606K
The test can be described thus: co-IP; HEK293T cells cotransfected with Flag-tagged and HA-tagged expression plasmids for 24 h; some cells treated with DZNep (10 μM), siADK or adenosine (1 mM); immunoprecipitation and immunoblotting (0.5% Nonidet P-40 buffer in Fig. 4 I).

Test [8] has as its target T5, full-length RIPK1 expressed in HEK293T cells (Flag-tagged RIPK1 and HA-tagged RIPK1) (mouse) (UniProt Q60855).
T5 sequence: T1 sequence
The test is described as above.

Test [9] concerns the target RIPK3, endogenous in MEFs (mouse (endogenous in MEFs)), Q9QZL0. Description: co-IP; necrosome: MEFs with siNC or siAdk, CHX (2 μg/ml) and zVAD.fmk (10 μM) for 0.5 h, then TNFα 10 ng/ml; RIPK3 immunoprecipitated, RIPK1 by immunoblotting. As to conditions: remark: other sources report otherwise.

Positions count from the first letter of the chain named. No constants are given. Whether binding was seen depends on the method and setting. In cells and extracts the contact can be indirect. Some results given as binding are weak or reduced against the parent protein; the word gives no strength. For some of these results: Where a sequence is shown, tags or fusion partners need not be part of it.

B1: RIPK1 death domain (Flag-tagged RIPK1-DD and HA-tagged RIPK1-DD) (domain or fragment, UniProt Q60855 568-654)
chain: TDEHLNPIRENLGRQWKNCARKLGFTESQIDEIDHDYERDGLKEKVYQMLQKWLMREGTKGATVGKLAQALHQCCRIDLLNHLIRAS
Take B1: in test [1], the binding result is “binds”.

B2: FADD, endogenous in MEFs (protein, UniProt Q61160 1-205)
chain: MDPFLVLLHSLSGSLSGNDLMELKFLCRERVSKRKLERVQSGLDLFTVLLEQNDLERGHTGLLRELLASLRRHDLLQRLDDFEAGTATAAPPGEADLQVAFDIVCDNVGRDWKRLARELKVSEAKMDGIEEKYPRSLSERVRESLKVWKNAEKKNASVAGLVKALRTCRLNLVADLVEEAQESVSKSENMSPVLRDSTVSSSETP
Take B2: the binding result in [2] was “no binding”; in test [3] it was “no binding”; in [4], “binds”; in test [5], “binds”; in test [6], “binds”.

B3: HA-tagged FADD (protein, UniProt Q61160 1-205)
chain: B2 chain
Turning to B3, the binding entry in test [7] and in test [8] was “binds” in each case.

B4: TRADD, endogenous in MEFs (protein, UniProt Q3U0V2 1-310)
chain: MAAGQNGHEEWVGSAYLFLESAVDKVILSEAYTDPKKKVAIYKALQTALSESGDSSDVLQILKIHCSDPQLIVQLRFCGRVLCGRFLQAYREGALRTALQRCMAPALAQEALRLQLELRAGAEQLDSWLTDEERCLNYILAQKPDRLRDEELAELEDELCKLTCDCTGQGGAIQVASAGSKFPVSSPTEEKPLPAACQTFLFHGQLVVNRPLTLQDQQTFARSVGLKWRRVGRSLQRNCRALRDPALDSLAYEYERDGLYEQAFQLLRRFMQAEGRRATLQRLVEALEENELTSLAEDLLGQAEPDGGLA
B4: the binding entry in test [2] is recorded as “no binding”; in [3], “no binding”; in [4] it was “binds”; in [5] it was “binds”; in [6], “binds”.

B5: HA-tagged TRADD (protein, UniProt Q3U0V2 1-310)
chain: B4 chain
Take B5: the binding result in [7] and in test [8] was “binds” each time.

B6: receptor-interacting serine/threonine kinase 1 (RIPK1), endogenous in MEFs, Q60855 1-656 (protein)
chain: T1 sequence
As for B6, the binding result in test [9] is on record as “binds”.
